# Measurements published in PubChem BioAssay AID485281 (National Center for Advancing Translational Sciences (NCATS), 2010).
# About 260 (0.074%) of roughly 350,000 compounds were called active. The shares of active, inactive and inconclusive entries below differ from those in the screen. Calls come from the whole dose curve; as a rule, active = well fitted inhibition curve with a large enough effect; inconclusive = small, poorly fitted or top-dose-only effect; inactive = no such curve, though single readings can be large or run the other way. Where the call is inconclusive, the potency comes from a doubtful curve fit.
# Biological target: Ferritin light chain (Equus caballus) (UniProt P02791)
# Chain of UniProt P02791 (P02791 whole entry, looked up): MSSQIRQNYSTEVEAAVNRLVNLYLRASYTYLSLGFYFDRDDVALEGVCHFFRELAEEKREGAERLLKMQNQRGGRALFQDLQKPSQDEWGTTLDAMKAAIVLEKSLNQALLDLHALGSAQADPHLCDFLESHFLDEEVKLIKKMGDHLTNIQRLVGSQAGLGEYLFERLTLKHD
# Assay: qHTS Assay for Identification of Novel General Anesthetics; note: nearly all actives have a fitted effect of over 20% in size
# Conditions: apoferritin/1-aminoanthracene competitive binding, fluorescence; activity change, negative = displacement: at 77.5 µM (top of the series)
# Outline: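 Horse-spleen apoferritin (10 uM) in 50% saturated 1-aminoanthracene in PBS was incubated 10 min at room temperature with compound. Fluorescence (ex 380, em 535 nm) was normalized to free and bound 1-AMA, with concentration-response fitted by a four-parameter Hill equation.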
# % is set by controls: 0 for no effect and ±100 for the full control effect; potency is the fitted concentration of half-maximal effect; tags give direction and shape of the fitted curve.
Compound,"activity change, negative = displacement",Potency
Cc1ccc2c(c1)c1c(n2CC(O)CNC(CO)(CO)CO)CCCC1 (stereo not given),inactive: 1.77%,
Cc1ccc2cc(C3CC(c4ccco4)=NN3S(=O)(=O)c3ccccc3)c(Cl)nc2c1 (stereo not given),inactive: -4.83%,
Cc1ccc(NC(=O)Cn2nc(Cc3ccncc3)c3ccccc3c2=O)c(Cl)c1,,"inconclusive: 7.94 µM [inhibitor, full curve]"
OCC[C@@H]1C[C@H](O)[C@@H](O)[C@]2(OCCc3ccccc32)O1,inactive: -4.53%,
COc1ccccc1CNC(=O)CN1N=C(c2ccccc2)CCC1=O,,"inconclusive: 25.1 µM [inhibitor, partial curve]"
O=C(c1ccco1)N1CCN=C1SCc1c(F)cccc1Cl,,"inconclusive: 35.5 µM [inhibitor, partial curve]"
CCc1nnc(NC(=O)CCC(=O)N2CCN(Cc3ccc(Cl)cc3)CC2)s1,inactive: -18.9%,
Cc1nc(Cl)c(C#N)cc1-c1ccccc1,,"inconclusive: 35.5 µM [inhibitor, partial curve]"
O=C(CCC(=O)Nc1ccc(Br)cc1)N/N=C/c1ccc(O)cc1,,"inconclusive: 50.1 µM [inhibitor, single point]"
Nc1cccc(C(=O)NCCNC(=O)c2cccc(N)c2)c1,inactive: 31.7%,
COc1ccc(CN2CCNC(=O)C2CC(=O)NC2CCCCCC2)c(F)c1 (stereo not given),,"inconclusive: 15.8 µM [inhibitor, partial curve]"
Cc1cccc(N2CCN(C(=O)c3ccc(NC(=O)c4nsc5ccccc45)cc3)CC2)c1C,,"inconclusive: 3.55 µM [inhibitor, full curve, poor fit]"
CCCCOCCCNS(=O)(=O)c1ccccc1,inactive: -21.5%,
CN(CCOc1ccccc1Cl)Cc1ccccc1,,"inconclusive: 39.8 µM [inhibitor, partial curve]"
Cc1cccc(N2CCN(C(=O)c3ccc4c(c3)NC(=O)C(CSCc3cccc(F)c3)N4)CC2C)c1 (stereo not given),,"inconclusive: 31.6 µM [inhibitor, partial curve]"
CC(C)(C)C1CCC(C(=O)OCC(=O)c2ccc[nH]2)CC1 (stereo not given),,"inconclusive: 50.1 µM [inhibitor, single point]"
CCCS(=O)(=O)N1CCCC(C(=O)c2ccccc2OC)C1 (stereo not given),,"inconclusive: 44.7 µM [inhibitor, single point]"
Cc1cccc(NC(=O)CSc2ccc(-c3ccco3)nn2)c1C,inactive: -4.92%,
CN(CC(=O)Nc1ccccc1Cl)C(=O)COC(=O)c1nc(Cl)c(Cl)c(Cl)c1Cl,,"inconclusive: 35.5 µM [inhibitor, partial curve]"
c1ccc(-c2csc(-c3ccncc3)n2)cc1,,"inconclusive: 25.1 µM [inhibitor, partial curve]"
